# Experimental data published in the supplement of paper PMC8728848.
# This is one part of the list.
# Tests used:
# Assay in all cases: glycan array binding signal (z-score within array); higher = stronger binding
# Details in all cases: glycan notation: IUPAC condensed, linker removed
# GalNAc(b1-3)Gal = target: GalNAc(b1-3)Gal
# In short: (§1)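 Columns mapping to the same glycan were averaged after glycan names were converted to IUPAC-condensed notation. The data come from 3228 arrays in the Consortium for Functional Glycomics database, limited to those with an available protein sequence. Binding is reported as a within-array Z-score averaged across arrays of one protein sequence and across linkers.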
# [1] = target: GalNAc(b1-3)Gal(a1-4)Gal(b1-4)GlcNAc
# In short: as §1
# [2] = target: GalNAc(b1-3)Gal(a1-4)Gal(b1-4)GlcNAc(b1-3)Gal(b1-4)Glc
# In short: as §1
# [3] = target: GalNAc(b1-3)Gal(a1-6)Gal(b1-4)Glc
# In short: as §1
# GalNAc(b1-3)GalNAc = target: GalNAc(b1-3)GalNAc
# In short: as §1
# GalNAc(b1-3)GlcNAc = target: GalNAc(b1-3)GlcNAc
# In short: as §1
# GalNAc(b1-4)Gal(b1-4)Glc = target: GalNAc(b1-4)Gal(b1-4)Glc
# In short: as §1
# GalNAc(b1-4)GlcNAc = target: GalNAc(b1-4)GlcNAc
# In short: as §1
# [4] = target: GalNAc(b1-4)GlcNAc(b1-2)Man
# In short: as §1
# [5] = target: GalNAc(b1-4)GlcNAc(b1-2)Man(a1-3)[GalNAc(b1-4)GlcNAc(b1-2)Man(a1-6)]Man(b1-4)GlcNAc(b1-4)GlcNAc
# In short: as §1
# [6] = target: GalNAc(b1-4)GlcNAc(b1-3)GalNAc(b1-4)GlcNAc
# In short: as §1
# GalNAc(b1-4)GlcNAc6S = target: GalNAc(b1-4)GlcNAc6S
# In short: as §1
# GalNAc(b1-6)GalNAc = target: GalNAc(b1-6)GalNAc
# In short: as §1
# GalNAc3S(b1-4)GlcNAc = target: GalNAc3S(b1-4)GlcNAc
# In short: as §1
# GalNAc3S(b1-4)GlcNAc3S = target: GalNAc3S(b1-4)GlcNAc3S
# In short: as §1
# [7] = target: GalNAc3S(b1-4)[Fuc(a1-3)]GlcNAc
# In short: as §1
# GalNAc4S6S(b1-4)GlcNAc = target: GalNAc4S6S(b1-4)GlcNAc
# In short: as §1
# GalNAc6S(b1-4)GlcNAc = target: GalNAc6S(b1-4)GlcNAc
# In short: as §1
# Glc(a1-4)Glc = target: Glc(a1-4)Glc
# In short: as §1
# [8] = target: Glc(a1-4)Glc(a1-4)Glc(a1-4)Glc
# In short: as §1
# Glc(a1-6)Glc(a1-6)Glc = target: Glc(a1-6)Glc(a1-6)Glc
# In short: as §1
# [9] = target: Glc(a1-6)Glc(a1-6)Glc(a1-6)Glc
# In short: as §1
# Glc(b1-4)Glc = target: Glc(b1-4)Glc
# In short: as §1
# Glc(b1-6)Glc = target: Glc(b1-6)Glc
# In short: as §1
# GlcA(b1-3)Gal = target: GlcA(b1-3)Gal
# In short: as §1
# GlcA(b1-3)GlcNAc = target: GlcA(b1-3)GlcNAc
# In short: as §1
# GlcA(b1-6)Gal = target: GlcA(b1-6)Gal
# In short: as §1
# [10] = target: GlcA3S(b1-3)Gal(b1-4)GlcNAc(b1-2)Man
# In short: as §1
# [11] = target: GlcA3S(b1-3)Gal(b1-4)GlcNAc(b1-3)Gal(b1-4)Glc
# In short: as §1
# [12] = target: GlcNAc(a1-3)Gal(b1-4)GlcNAc
# In short: as §1
# [13] = target: GlcNAc(a1-4)Gal(b1-3)GlcNAc
# In short: as §1
# [14] = target: GlcNAc(a1-4)Gal(b1-4)GalNAc
# In short: as §1
# [15] = target: GlcNAc(a1-4)Gal(b1-4)GlcNAc
# In short: as §1
# [16] = target: GlcNAc(a1-4)Gal(b1-4)GlcNAc(b1-3)Gal(b1-4)Glc
# In short: as §1
# [17] = target: GlcNAc(a1-4)Gal(b1-4)GlcNAc(b1-3)Gal(b1-4)GlcNAc
# In short: as §1
# [18] = target: GlcNAc(a1-4)Gal(b1-4)GlcNAc(b1-3)Gal(b1-4)GlcNAc(b1-3)Gal(b1-4)GlcNAc
# In short: as §1
# [19] = target: GlcNAc(a1-4)Gal(b1-4)GlcNAc(b1-3)Gal(b1-4)[Fuc(a1-3)]GlcNAc(b1-3)Gal(b1-4)[Fuc(a1-3)]GlcNAc
# In short: as §1
# [20] = target: GlcNAc(a1-6)Gal(b1-4)GlcNAc
# In short: as §1
binder,measurement,setting,value
OGAN (protein) MVQKESQATLEERESELSSNPAASAGASLEPPAAPAPGEDNPAGAGGAAVAGAAGGARRFLCGVVEGFYGRPWVMEQRKELFRRLQKWELNTYLYAPKDDYKHRMFWREMYSVEEAEQLMTLISAAREYEIEFIYAISPGLDITFSNPKEVSTLKRKLDQVSQFGCRSFALLFNDIDHNMCAADKEVFSSFAHAQVSITNEIYQYLGEPETFLFCPTEYCGTFCYPNVSQSPYLRTVGEKLLPGIEVLWTGPKVVSKEIPVESIEEVSKIIKRAPVIWDNIHANDYDQKRLFLGPYKGRSTELIPRLKGVLTNPNCEFEANYVAIHTLATWYKSNMNGVRKDVVMTDSEDSTVSIQIKLENEGSDEDIETDVLYSPQMALKLALTEWLQEFGVPHQY,glycan array binding signal (z-score),GalNAc(b1-3)Gal,-0.045
same,glycan array binding signal (z-score),[1],-0.044
same,glycan array binding signal (z-score),[2],-0.089
same,glycan array binding signal (z-score),[3],-0.058
same,glycan array binding signal (z-score),GalNAc(b1-3)GalNAc,-0.059
same,glycan array binding signal (z-score),GalNAc(b1-3)GlcNAc,-0.04
same,glycan array binding signal (z-score),GalNAc(b1-4)Gal(b1-4)Glc,-0.035
same,glycan array binding signal (z-score),GalNAc(b1-4)GlcNAc,-0.05
same,glycan array binding signal (z-score),[4],-0.049
same,glycan array binding signal (z-score),[5],-0.042
same,glycan array binding signal (z-score),[6],-0.024
same,glycan array binding signal (z-score),GalNAc(b1-4)GlcNAc6S,-0.033
same,glycan array binding signal (z-score),GalNAc(b1-6)GalNAc,-0.027
same,glycan array binding signal (z-score),GalNAc3S(b1-4)GlcNAc,0.005
same,glycan array binding signal (z-score),GalNAc3S(b1-4)GlcNAc3S,-0.067
same,glycan array binding signal (z-score),[7],-0.082
same,glycan array binding signal (z-score),GalNAc4S6S(b1-4)GlcNAc,-0.006
same,glycan array binding signal (z-score),GalNAc6S(b1-4)GlcNAc,-0.056
same,glycan array binding signal (z-score),Glc(a1-4)Glc,-0.053
same,glycan array binding signal (z-score),[8],0.06
same,glycan array binding signal (z-score),Glc(a1-6)Glc(a1-6)Glc,-0.103
same,glycan array binding signal (z-score),[9],-0.01
same,glycan array binding signal (z-score),Glc(b1-4)Glc,-0.078
same,glycan array binding signal (z-score),Glc(b1-6)Glc,-0.093
same,glycan array binding signal (z-score),GlcA(b1-3)Gal,-0.079
same,glycan array binding signal (z-score),GlcA(b1-3)GlcNAc,-0.063
same,glycan array binding signal (z-score),GlcA(b1-6)Gal,-0.1
same,glycan array binding signal (z-score),[10],-0.022
same,glycan array binding signal (z-score),[11],-0.105
same,glycan array binding signal (z-score),[12],-0.068
same,glycan array binding signal (z-score),[13],-0.075
same,glycan array binding signal (z-score),[14],-0.053
same,glycan array binding signal (z-score),[15],-0.069
same,glycan array binding signal (z-score),[16],-0.079
same,glycan array binding signal (z-score),[17],-0.033
same,glycan array binding signal (z-score),[18],-0.058
same,glycan array binding signal (z-score),[19],-0.057
same,glycan array binding signal (z-score),[20],-0.092
